Among all 410,000 compounds or so, about 7,200 (1.8%) were called active. Inconclusive means that the source gave no clear call. Such entries were picked first, then a sample of the others. Calls follow the shape of the dose curve; as a rule, active = well fitted activation curve with a large enough effect; inconclusive = small, poorly fitted or top-dose-only effect, or another doubt; inactive = no such curve, though single readings can be large or run the other way. No potency is given beside an inconclusive call; the fits are too rough.
Assay: qHTS of TDP-43 Inhibitors; also: nearly all actives have a fitted effect of over 50% in size; as to growth rescue (activation): % of control where 0% means no effect
Conditions: TDP-43 expressing yeast growth rescue, BacTiter-Glo, 24 h; growth rescue (activation): at 46.1 µM (top of the series) unless noted
Procedure, shortened: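 Readout is BacTiter-Glo luminescence of cell growth, so inhibitors register as activators. TDP-43-expressing yeast at OD600=0.02 in galactose medium, after raffinose pregrowth to mid-log, were incubated with compound for 24 hr at 30 deg C.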
Potency is read from the fitted curve at half-maximal effect; tags tell the direction and shape of the fitted curve.

Compound | Potency | growth rescue (activation)
Cc1ccccc1CN1CCSc2sccc2C1=O | inconclusive [activator, single point] | 
CC1CC(C)CN(C(=O)COC(=O)/C=C/c2ccco2)C1 (configuration not stated) | inconclusive [activator, single point] | 
CCc1cc(C(c2cccc(OC)c2)N2CCOCC2)c(NC(=O)c2ccccc2)s1 (configuration not stated) | inconclusive [activator, partial curve] | 
CC(=O)N1c2ccc(S(=O)(=O)NCCC(=O)NCc3ccc(F)cc3)cc2CC1C (configuration not stated) | inconclusive [activator, single point] | 
CCC(Oc1ccccc1F)C(=O)N1CCC(c2nc3ccccc3s2)CC1 (configuration not stated) | active: 25.1 µM | 
O=C(COC(=O)C1CCN(S(=O)(=O)c2cc([N+](=O)[O-])ccc2Cl)CC1)Nc1ncc(Cl)cc1Cl | inconclusive [activator, partial curve, poor fit] | 
COc1ccc(Cl)cc1NC(=O)C1CCCN(c2ncnc3onc(C)c23)C1 (configuration not stated) | inconclusive [activator, partial curve] | 
CCN(CC)C(=O)N1CCc2ccccc2C1CN1C(=O)c2ccccc2C1=O (configuration not stated) | inconclusive [activator, single point] | 
Cc1ccc(NC(=O)c2cc(N3C(=O)C=CC3=O)ccc2Cl)cc1C |  | inconclusive: -93.6% [activator]
O=C(NC(=S)N1CCCCCC1)c1cccc([N+](=O)[O-])c1 | inconclusive [activator, partial curve] | 
NC1(C(=O)O)CCCCC1c1ccccc1 (configuration not stated) | inconclusive [activator, partial curve] | 
CCc1nc2ccc(C(=O)Nc3cccc(OCC(=O)N(C)C)c3)cn2c1N(C)Cc1ccc(OC)cc1 | inactive | 
COc1ccc(-c2cn3cc([N+](=O)[O-])ccc3n2)cc1OC | inconclusive [activator, partial curve] | 
COc1ccc(C(C(=O)Nc2ccc3c(c2)OCCO3)n2c(=O)c(-c3cc4ccccc4[nH]3)nc3ccccc32)cc1 (configuration not stated) | inconclusive [activator, partial curve] | 
O=C(CSc1cccc[n+]1[O-])Nc1ccccc1Oc1ccccc1 |  | inconclusive: -91.9% [activator]
O=C(Nc1cc(C(F)(F)F)ccc1-n1cncn1)c1ccc(Br)cc1 | inconclusive [activator, partial curve] | 
O=c1c2cc3c(cc2n(Cc2ccc(F)cc2)c(=O)n1Cc1nc(-c2ccccc2)no1)OCO3 | inactive | 
COC(=O)[C@]12CCCCC=C1N(Cc1ccco1)C(=O)[C@H](CC(=O)N1CCC(c3ccccc3)CC1)C2 | active: 12.6 µM | 
O=[N+]([O-])c1ccc(SCCc2ccncc2)cc1 | inconclusive [activator, single point] | 
COc1ccc(OCCSc2nnnn2C2CCCCC2)cc1 | inconclusive [activator, partial curve] | 
Clc1ccc2ccc3cccnc3c2n1 | inconclusive [activator, partial curve] | 

Compound | Potency | growth rescue (activation)
O=C(Oc1ccc(-c2nnco2)cc1)C1CCN(C(=O)c2ccc(F)cc2)CC1 | inconclusive [activator, single point] | 
COc1ccccc1OCC(O)Cn1c(=N)n(CCN2CCCCC2)c2ccccc21 (configuration not stated) | inconclusive [activator, partial curve, poor fit] | 
COc1ccc(C(=O)CCNc2ccc(F)cc2)cc1 | inactive | 
Clc1ccc2c(c1)NC(c1ccncc1)=NC(c1cccs1)=N2 | inconclusive [activator, partial curve] | 
Cc1ccc(S(=O)(=O)NC(=O)c2cccc(C)c2)cc1 | inconclusive [activator, full curve, poor fit] | 
COc1ccc2cc(C3(C)NC(=O)N(CC(=O)NCCC4=CCCCC4)C3=O)ccc2c1 (configuration not stated) | inactive | 
COc1ccccc1CN1CC(C(=O)NCCc2ccc(Cl)cc2)CC1=O (configuration not stated) | inconclusive [activator, single point] | 
CCOC(=O)c1ccc(Oc2c(C)oc3cc(OS(C)(=O)=O)ccc3c2=O)cc1 | inconclusive [activator, single point] | 
Cc1ccc(CSc2nnc(SCC(=O)N/N=C/c3c[nH]c4ccccc34)s2)cc1 | inconclusive [activator, single point] | 
Cc1cc(C)c(C2=NOC3C4CCC(C4)C23)c(C)c1 (configuration not stated) | inconclusive [activator, single point] | 
O=C(CC(c1ccccc1)c1ccccc1)OCn1nnc2ccccc2c1=O | active: 17.8 µM | 
O=C(Nc1ccccc1)OCCCc1ccccc1 | inconclusive [activator, partial curve] | 
O=C(NC(=S)Nc1ccccc1N1CCCCC1)c1ccco1 | active: 35.5 µM | 
COc1ccc2c(c1)c(=O)c(C(=O)c1ccc(F)cc1)cn2CC(=O)Nc1ccc2c(c1)OCCO2 | inactive | 
CC(C)(C)n1nc2c(c1NC(=O)c1ccco1)CS(=O)C2 (configuration not stated) | inconclusive [activator, partial curve, poor fit] | 
O=[N+]([O-])c1ccccc1-c1nc(-c2ccc(Br)o2)no1 | inconclusive [activator, single point] | 
Cc1ccc(NC(=O)Cn2c(=O)ccc3cc(S(=O)(=O)N4CCCC4)ccc32)cc1C | inconclusive [activator, partial curve, poor fit] | 
Cc1cccc(C(=O)NC(=S)NNC(=O)c2cccs2)c1 | inconclusive [activator, single point] | 
COC(=O)/C=C1\OC(C2CC2)c2ccccc21 (configuration not stated) | active: 28.2 µM | 
Cn1cc(NC(=O)OCc2ccc(Cl)cc2)c(C(F)(F)F)n1 | inconclusive [activator, partial curve] | 
Cn1c(CNC(=O)CSc2nc(-c3ccccc3F)nc3cc(=O)[nH]n23)nc2ccccc21 | inactive | 
